Measured values as given in ChEMBL document CHEMBL4888484, “Replenishing the malaria drug discovery pipeline: Screening and hit evaluation of the MMV Hit Generation Library 1 (HGL1) against asexual blood stage Plasmodium falciparum ,using a nano luciferase reporter read-out” (2022).
Out of some 150,000 compounds screened, about 540 (0.36%) showed an effect of 50% or more. The list shows a part of the results.

system: Plasmodium falciparum; test: Primary screen in NF54 nanoGlo assay, in single point, at 2uM, 72h; a lower Z score goes with more inhibition; format: functional, Erythrocyte; details: timepoint 72 hour

Structure (SMILES) | % Inhibition | Z score
Cc1ccccc1N1CCN(C(=O)C[C@H](c2ccc(F)cc2)c2cn(Cc3ccccc3)c3ccccc23)CC1 | 5% | -0.58
Cc1nc(C(=O)N[C@H]2CN(C3CCOCC3)C[C@@H]2C(C)C)cs1 | -9% | 1.73
O=C(c1ccc(Br)o1)N1CCCS1(=O)=O | 14% | -2.59
COc1ccc(CCC(=O)N2CC(n3ccnc3C)C2)cc1 | -1% | 0.08
O=C(NCc1nc2ccccc2s1)c1ccc(=O)[nH]n1 | -12% | 2.01
Cc1n[nH]c(C)c1S(=O)(=O)Nc1ccccc1C(=O)NC1CC1 | 9% | -1.05
CC(C)Oc1ccc2c(c1)[C@H](NS(=O)(=O)CC#N)CCC2 | -3% | 0.24
O=S(=O)(c1cccc(Cl)c1)N1CCc2nc(N3CCCCC3)nc(Oc3ccccc3)c2C1 | 53% | -13.31
Cc1ccc(CN2CCC(CNC(=O)C3CCCN(c4ncnc5c4nc4n5CCCCC4)C3)C2)cc1 (stereo unspecified) | -1% | 0.21
OC[C@H]1CCCN(CCNCc2ccccc2OCCCCN2CCOCC2)C1 | -2% | 0.22
Cc1cc(Cn2ccc(-c3cccc(-c4cccs4)c3)n2)no1 | -3% | 0.25
CC1CC(N2CCCC(Cn3cncn3)C2)C(=O)O1 (stereo unspecified) | -7% | 0.94
c1cc2nonc2cc1CN1CCC[C@H](Nc2ccc3c(c2)OCCO3)C1 | 8% | -1.41
CC(C)(C)c1nccc(NCc2cc(C(F)F)on2)n1 | -3% | 0.67
CCc1cccc(C)c1N1C[C@@H](c2ncc(-c3cccnc3)[nH]2)CC1=O | -14% | 1.9
Cc1nc(N[C@H]2CCS(=O)(=O)C2)c(Cl)cc1C#N | 1% | -0.12
CNC(=O)C(C)(C)CN[C@@H](C)c1cc(F)cc(F)c1 | -3% | 0.38
CN1CC2(CCN(C(=O)CN3CCCC3)CC2)C[C@@H](c2ccccc2)C1=O | 0% | 0.04
Oc1ccc(Br)cc1-c1nc(C(F)(F)F)no1 | 2% | -0.15
COc1cc(CN(C)Cc2cc[nH]n2)ccc1OC[C@@H](O)CN1CCCCCC1 | -4% | 0.85
CC(C)C(=O)N1C[C@@H]2C[C@@H](O)CN2C2(C1)CN(C1CCC(F)(F)CC1)C2 | 1% | -0.21
CC(=O)N1C[C@@H]2OCC(=O)N(Cc3ccc(F)cc3)[C@@H]2C1 | 19% | -2.22
CCn1nc(-c2ccc(OC)c(S(=O)(=O)Nc3ccc(C)c(C)c3)c2)c2c(c1=O)CCCC2 | -6% | 0.93
CNC(=O)[C@H](NC(=O)c1cc(-c2ccc(C)s2)nc2onc(C)c12)c1ccccc1 | -2% | 0.3
Cc1ccc(O)c(NC(=O)c2cccn3c(Cc4ccccc4)nnc23)c1 | -5% | 0.76
COc1cc(C(=O)N[C@H]2CCN(c3c(F)cccc3F)C2)ncn1 | -2% | 0.24
CCCN1CCN(C(=O)Nc2ccc3c(c2)CCC3)CC1 | -2% | 0.45

Structure (SMILES) | % Inhibition | Z score
CC(C)Oc1cc(NC(Cc2ccccn2)[C@H]2C[C@@H](O)C2)nc(N)n1 (stereo partly specified) | 3% | -0.3
O=S(=O)(Cc1cccc(F)c1)N1CC(c2nc(-c3cnccn3)no2)C1 | -4% | 0.76
O=C(NCCc1ccccc1)N1CC[C@H](Oc2cnc3ccccc3n2)C1 | -1% | 0.19
CC[C@@]1(C2CCN(Cc3ccc(C)s3)CC2)NC(=O)N(CCc2ccc(OC)cc2)C1=O | 2% | -0.22
CC(NCC(O)COc1ccc2c(c1)OCO2)c1ccccc1 (stereo unspecified) | -9% | 1.69
O=C(NC1CCCC1)N1CCC[C@@H]1CN1CCCC1 | 1% | -0.16
Cc1cc(NC(=O)CCCc2ccccn2)sn1 | -3% | 0.45
O=C(CC1CC1)NCCn1c(=O)[nH]c2ncccc2c1=O | -4% | 0.66
CCn1cc(CN(C)C/C=C/c2ccccc2)cn1 | -4% | 0.39
Cc1ccc(C(=O)N2CCC[C@H](CCC(=O)N3CCN(c4ccccn4)CC3)C2)s1 | -8% | 1.24
Cc1nc(NC(=O)Cc2ccccc2O)n[nH]1 | -18% | 3.13
CCN1CCN(c2nc(-c3ccccc3)ncc2C(=O)N2CCC(Cc3ccccc3)CC2)CC1 | -12% | 1.27
C[C@@H](C(=O)N(C)C1CCN(c2ccccn2)CC1)n1ccnc1 | -15% | 1.89
CCOc1cccc(CNC(=O)c2ccc(Oc3nccnc3N3CCOCC3)cc2)c1 | -2% | 0.22
Cc1ccc(CN(C)CCC(C)(C)O)c(C)c1F | -6% | 1.04
O=C(Cn1ncn2c(cc3ccccc32)c1=O)N1CCN(Cc2ccccc2)CC1 | -5% | 0.61
O=C(NC[C@@H]1COc2ccccc2C1)c1ccc(S(=O)(=O)NC2CC2)cc1 | -1% | 0.13
Nc1nc(COC(=O)[C@H]2CCCN(C(=O)c3ccc(Cl)cc3)C2)nc(Nc2ccccc2)n1 | -4% | 0.63
Cc1c(CN(C)Cc2nncn2C)c(-c2ccccc2)nn1-c1ccccc1 | -7% | 1.17
COc1ncccc1C(=O)N1CC[C@H](Oc2cc(C)n(C)c(=O)c2)C1 | 5% | -0.53
CCCn1cc(CNc2cnc3[nH]nc(C)c3c2)cn1 | -10% | 0.99
Cc1ccc(C)c(CN(Cc2ccc(F)cc2)Cc2nc(C(=O)NC(C)C)co2)c1 | -4% | 0.69
CNc1nc(N2CCCn3nc(CNC(=O)C4CCC4)cc3C2)ncc1F | -1% | 0.1
Cc1cc(Cl)ccc1NC(=O)Cn1ncc(-c2ccccc2)nc1=O | 4% | -0.48
COCCNCCOCCOc1ccc(Cl)c(C)c1 | 3% | -0.64
COc1ccc([C@H]2CCCCN(C(=O)C3CCOCC3)C2)cc1 | 15% | -1.85
